Experimental data reported in the supplement of paper PMC8728848.
This is one part of the list.

Columns and labels:
Assay in all cases: glycan array binding signal (z-score within array); higher = stronger binding
Settings in all cases: glycan notation: IUPAC condensed, linker removed
[1] = molecular target: Fuc(a1-2)[GalNAc(a1-3)]Gal(b1-3)GlcNAc(b1-3)GalNAc
Outline: (§1)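 Arrays were curated from the Consortium for Functional Glycomics database, 3228 in total, and kept only where the protein sequence was available. Binding is expressed as a within-array Z-score. This score was averaged across arrays of the same protein sequence at different concentrations or buffers and across linkers, and negative values can be read as non-binding.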

[2] = molecular target: Fuc(a1-2)[GalNAc(a1-3)]Gal(b1-3)GlcNAc(b1-6)GalNAc
Outline: as §1

[3] = molecular target: Fuc(a1-2)[GalNAc(a1-3)]Gal(b1-4)Glc
Outline: as §1

[4] = molecular target: Fuc(a1-2)[GalNAc(a1-3)]Gal(b1-4)GlcNAc
Outline: as §1

[5] = molecular target: Fuc(a1-2)[GalNAc(a1-3)]Gal(b1-4)GlcNAc(b1-2)Man
Outline: as §1

[6] = molecular target: Fuc(a1-2)[GalNAc(a1-3)]Gal(b1-4)GlcNAc(b1-2)Man(a1-3)[Fuc(a1-2)[GalNAc(a1-3)]Gal(b1-4)GlcNAc(b1-2)Man(a1-6)]Man(b1-4)GlcNAc(b1-4)GlcNAc
Outline: as §1

[7] = molecular target: Fuc(a1-2)[GalNAc(a1-3)]Gal(b1-4)GlcNAc(b1-2)Man(a1-3)[Fuc(a1-2)[GalNAc(a1-3)]Gal(b1-4)GlcNAc(b1-2)Man(a1-6)]Man(b1-4)GlcNAc(b1-4)[Fuc(a1-6)]GlcNAc
Outline: as §1

[8] = molecular target: Fuc(a1-2)[GalNAc(a1-3)]Gal(b1-4)GlcNAc(b1-3)Gal(b1-4)GlcNAc
Outline: as §1

[9] = molecular target: Fuc(a1-2)[GalNAc(a1-3)]Gal(b1-4)GlcNAc(b1-3)Gal(b1-4)GlcNAc(b1-3)Gal(b1-4)GlcNAc
Outline: as §1

[10] = molecular target: Fuc(a1-2)[GalNAc(a1-3)]Gal(b1-4)GlcNAc(b1-3)GalNAc
Outline: as §1

[11] = molecular target: Fuc(a1-2)[GalNAc(a1-3)]Gal(b1-4)GlcNAc(b1-3)[Fuc(a1-2)[GalNAc(a1-3)]Gal(b1-4)GlcNAc(b1-6)]GalNAc
Outline: as §1

[12] = molecular target: Fuc(a1-2)[GalNAc(a1-3)]Gal(b1-4)GlcNAc(b1-6)GalNAc
Outline: as §1

[13] = molecular target: Fuc(a1-2)[GalNAc(a1-3)]Gal(b1-4)[Fuc(a1-3)]GlcNAc
Outline: as §1

[14] = molecular target: Fuc(a1-2)[GalNAc(a1-3)]Gal(b1-4)[Fuc(a1-3)]GlcNAc(b1-3)GalNAc
Outline: as §1

[15] = molecular target: Fuc(a1-2)[GalNAc(a1-4)]Gal(b1-4)GlcNAc
Outline: as §1

[16] = molecular target: Fuc(a1-2)[GalNAc(b1-3)]Gal
Outline: as §1

Fuc(a1-3)GlcNAc = molecular target: Fuc(a1-3)GlcNAc
Outline: as §1

[17] = molecular target: Fuc(a1-3)[Gal(b1-4)]Glc6S
Outline: as §1

[18] = molecular target: Fuc(a1-3)[Gal(b1-4)]GlcNAc
Outline: as §1

[19] = molecular target: Fuc(a1-3)[Gal(b1-4)]GlcNAc(b1-2)Man
Outline: as §1

[20] = molecular target: Fuc(a1-3)[Gal(b1-4)]GlcNAc(b1-2)Man(a1-3)[Fuc(a1-3)[Gal(b1-4)]GlcNAc(b1-2)Man(a1-6)]Man(b1-4)GlcNAc(b1-4)GlcNAc
Outline: as §1

[21] = molecular target: Fuc(a1-3)[Gal(b1-4)]GlcNAc(b1-2)Man(a1-3)[Fuc(a1-3)[Gal(b1-4)]GlcNAc(b1-2)Man(a1-6)]Man(b1-4)GlcNAc(b1-4)[Fuc(a1-6)]GlcNAc
Outline: as §1

[22] = molecular target: Fuc(a1-3)[Gal(b1-4)]GlcNAc(b1-3)Gal(b1-3)[Fuc(a1-4)]GlcNAc
Outline: as §1

[23] = molecular target: Fuc(a1-3)[Gal(b1-4)]GlcNAc(b1-3)Gal(b1-4)[Fuc(a1-3)]GlcNAc
Outline: as §1

[24] = molecular target: Fuc(a1-3)[Gal(b1-4)]GlcNAc(b1-3)Gal(b1-4)[Fuc(a1-3)]GlcNAc(b1-3)Gal(b1-4)[Fuc(a1-3)]GlcNAc
Outline: as §1

[25] = molecular target: Fuc(a1-3)[Gal(b1-4)]GlcNAc(b1-3)GalNAc
Outline: as §1

[26] = molecular target: Fuc(a1-3)[Gal(b1-4)]GlcNAc(b1-6)GalNAc
Outline: as §1

[27] = molecular target: Fuc(a1-3)[Gal(b1-4)]GlcNAc(b1-6)[Gal(b1-3)GlcNAc(b1-3)]Gal(b1-4)Glc
Outline: as §1

[28] = molecular target: Fuc(a1-3)[Gal(b1-4)]GlcNAc6S
Outline: as §1

[29] = molecular target: Fuc(a1-3)[Gal3S(b1-4)]Glc
Outline: as §1

[30] = molecular target: Fuc(a1-3)[Gal3S(b1-4)]GlcNAc
Outline: as §1

[31] = molecular target: Fuc(a1-3)[Gal3S(b1-4)]GlcNAc6S
Outline: as §1

[32] = molecular target: Fuc(a1-3)[GalNAc(b1-4)]GlcNAc
Outline: as §1

[33] = molecular target: Fuc(a1-3)[GalNAc(b1-4)]GlcNAc6S
Outline: as §1

Fuc(a1-4)GlcNAc = molecular target: Fuc(a1-4)GlcNAc
Outline: as §1

Fuc(b1-3)GlcNAc = molecular target: Fuc(b1-3)GlcNAc
Outline: as §1

Gal(a1-2)Gal = molecular target: Gal(a1-2)Gal
Outline: as §1

B1: MGL (Homo sapiens), Q8IUN9 (protein)
chain: MTRTYENFQYLENKVKVQGFKNGPLPLQSLLQRLCSGPCHLLLSLGLGLLLLVIICVVGFQNSKFQRDLVTLRTDFSNFTSNTVAEIQALTSQGSSLEETIASLKAEVEGFKQERQAGVSELQEHTTQKAHLGHCPHCPSVCVPVHSEMLLRVQQLVQDLKKLTCQVATLNNNASTEGTCCPVNWVEHQDSCYWFSHSGMSWAEAEKYCQLKNAHLVVINSREEQNFVQKYLGSAYTWMGLSDPEGAWKWVDGTDYATGFQNWKPGQPDDWQGHGLGGGEDCAHFHPDGRWNDDVCQRPYHWVCEAGLGQTSQESH
glycan array binding signal (z-score) [1]: -0.112 | glycan array binding signal (z-score) [2]: 3.6 | glycan array binding signal (z-score) [3]: 0.112 | glycan array binding signal (z-score) [4]: 0.418 | glycan array binding signal (z-score) [5]: 0.364 | glycan array binding signal (z-score) [6]: 0.643 | glycan array binding signal (z-score) [7]: -0.116 | glycan array binding signal (z-score) [8]: 0.29 | glycan array binding signal (z-score) [9]: 0.111 | glycan array binding signal (z-score) [10]: -0.157 | glycan array binding signal (z-score) [11]: 0.106 | glycan array binding signal (z-score) [12]: 4.98 | glycan array binding signal (z-score) [13]: -0.135 | glycan array binding signal (z-score) [14]: -0.242 | glycan array binding signal (z-score) [15]: 3.39 | glycan array binding signal (z-score) [16]: 4.3 | glycan array binding signal (z-score) (Fuc(a1-3)GlcNAc): -0.243 | glycan array binding signal (z-score) [17]: -0.238 | glycan array binding signal (z-score) [18]: -0.232 | glycan array binding signal (z-score) [19]: -0.246 | glycan array binding signal (z-score) [20]: -0.247 | glycan array binding signal (z-score) [21]: -0.24 | glycan array binding signal (z-score) [22]: -0.248 | glycan array binding signal (z-score) [23]: -0.233 | glycan array binding signal (z-score) [24]: -0.248 | glycan array binding signal (z-score) [25]: -0.241 | glycan array binding signal (z-score) [26]: 0.456 | glycan array binding signal (z-score) [27]: -0.251 | glycan array binding signal (z-score) [28]: -0.227 | glycan array binding signal (z-score) [29]: -0.241 | glycan array binding signal (z-score) [30]: -0.233 | glycan array binding signal (z-score) [31]: -0.245 | glycan array binding signal (z-score) [32]: 2.54 | glycan array binding signal (z-score) [33]: 1.94 | glycan array binding signal (z-score) (Fuc(a1-4)GlcNAc): -0.242 | glycan array binding signal (z-score) (Fuc(b1-3)GlcNAc): -0.242 | glycan array binding signal (z-score) (Gal(a1-2)Gal): -0.25
